Results reported in the supplement of paper PMC3334620.
Whole data set: some 33,000 sequences, median “E-score (-0.5 to 0.5)” near -0.043, cut for the highest 2% near 0.37. The list shows a part of the results.

Molecular target: T1, Upc2 (UniProt Q12151)
T1 sequence: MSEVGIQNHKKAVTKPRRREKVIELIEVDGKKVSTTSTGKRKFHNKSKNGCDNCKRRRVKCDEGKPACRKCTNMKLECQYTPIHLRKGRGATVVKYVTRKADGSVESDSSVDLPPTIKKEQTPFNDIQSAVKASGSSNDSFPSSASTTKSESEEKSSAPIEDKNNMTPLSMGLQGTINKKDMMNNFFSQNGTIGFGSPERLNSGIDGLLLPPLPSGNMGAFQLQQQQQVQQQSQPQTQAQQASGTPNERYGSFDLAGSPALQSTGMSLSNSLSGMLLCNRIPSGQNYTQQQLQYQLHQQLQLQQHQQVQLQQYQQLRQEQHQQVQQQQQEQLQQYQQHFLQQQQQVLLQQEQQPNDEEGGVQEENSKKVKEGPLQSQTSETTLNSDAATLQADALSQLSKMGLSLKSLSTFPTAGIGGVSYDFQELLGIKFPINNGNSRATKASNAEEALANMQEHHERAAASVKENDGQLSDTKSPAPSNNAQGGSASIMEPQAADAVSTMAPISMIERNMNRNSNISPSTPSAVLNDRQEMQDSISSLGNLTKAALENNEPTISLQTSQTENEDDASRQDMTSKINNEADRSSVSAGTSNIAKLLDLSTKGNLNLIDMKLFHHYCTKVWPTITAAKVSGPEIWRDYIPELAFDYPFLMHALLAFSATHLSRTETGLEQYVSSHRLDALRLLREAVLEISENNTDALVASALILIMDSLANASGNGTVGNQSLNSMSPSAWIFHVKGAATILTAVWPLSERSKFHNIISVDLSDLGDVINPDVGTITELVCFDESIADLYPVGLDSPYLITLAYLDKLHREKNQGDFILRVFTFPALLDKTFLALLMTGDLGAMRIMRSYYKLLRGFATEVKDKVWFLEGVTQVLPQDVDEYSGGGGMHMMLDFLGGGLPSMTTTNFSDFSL
Assay: PBM E-score (8-mer binding enrichment) (E-score (-0.5 to 0.5)); higher = stronger / more preferred TF binding; most listed sequences are background and not binding sites
Conditions: protein concentration: 200 nM; construct: GST-full length
Procedure, shortened: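 Yeast transcription factors, full-length or as DNA-binding domains, were expressed with a GST tag using PURExpress in vitro transcription/translation. At about 100-200 nM they were applied to universal all-10-mer Agilent arrays, double-stranded by primer extension on fresh or once-stripped slides. Fluorescent anti-GST detected bound protein, and masliner normalised the scans. E-scores for ungapped eight-base words, pooled with reverse complements, came from the Universal PBM Analysis Suite.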

Row | Sequence | PBM E-score
1 | ACATAAGC | -0.0498
2 | GTGCACCA | -0.0747
3 | ATACTCAG | 0.0421
4 | CCATGATA | -0.0551
5 | AGAGACCT | -0.156
6 | CAGTTGAG | -0.255
7 | GCCTCGGA | 0.135
8 | ACACACAT | 0.0698
9 | GACTCTCA | -0.187
10 | CAGATAGC | -0.269
11 | GGCCGGGA | -0.0423
12 | TACGTCTA | 0.123
13 | AGGTCGTC | 0.0416
14 | AATCACAT | -0.157
15 | AAGTACTT | -0.0695
16 | GCTGCGAA | 0.0876
17 | CGACACAA | 0.0708
18 | ACACAGCC | -0.115
19 | GGTTCTTA | -0.0238
20 | AGATCACT | -0.0701
21 | CTAGCATA | -0.092
22 | GATAACTA | -0.125
23 | AACCCGTA | 0.283
24 | CTGAGCGC | -0.0276
25 | AAGGAGTC | -0.0968

Row | Sequence | PBM E-score
26 | CGGAAGGA | -0.252
27 | ACTGATAC | 0.115
28 | ATTGACAC | -0.126
29 | AAATCTGC | -0.106
30 | GCTCGCCC | -0.17
31 | ATGGTTCA | -0.0769
32 | CCTTAGAA | -0.183
33 | GTTCACAA | 0.195
34 | CTTGATCC | -0.129
35 | AAATGGTA | 0.159
36 | AAAATGCC | 0.123
37 | GGCGTGAC | -0.276
38 | GATGCCGA | 0.0445
39 | GCTGGAGA | -0.124
40 | AACATCCT | -0.165
41 | AGACGGCT | -0.251
42 | GCCGGGTA | -0.143
43 | ACACTTGC | -0.177
44 | GTATAACA | 0.307
45 | GCTGAGAC | -0.203
46 | CGAGCTAA | 0.124
47 | AGGCCTAT | -0.12
48 | GCTAATGA | -0.0954
49 | GATGCAAA | -0.0157
50 | GCGGTCCA | -0.178

Row | Sequence | PBM E-score
51 | GAGGTCAA | -0.0747
52 | GAAGAGGC | -0.108
53 | ATCCAACC | -0.11
54 | AGCGTAGG | -0.204
55 | CGTCCGGC | -0.0931
56 | AAACCGGT | -0.0242
57 | CCGGTTCA | -0.152
58 | GCTATCAA | 0.0193
59 | AGGTTATG | -0.0442
60 | CGCGCGTA | 0.242
61 | AACAAATC | 0.137
62 | TGTCTCAA | -0.13
63 | GTCTACCA | -0.135
64 | TATACCAA | 0.117
65 | AGTTCTCA | -0.107
66 | CGGCGAAG | -0.00659
67 | GTATTGAA | 0.0502
68 | AAAAAATA | 0.0722
69 | TCTGGCAA | -0.274
70 | GCTACTCC | -0.242
71 | CTGTAAAA | 0.00697
72 | ACAGTATA | 0.254
73 | AGCTCGAT | -0.0109
74 | GATCTGGA | -0.117
75 | GAAGCTAA | -0.0863

Row | Sequence | PBM E-score
76 | ACACCCTG | -0.311
77 | AATTCTCG | 0.235
78 | CCCCCGTC | -0.229
79 | GGCATCTA | -0.0348
80 | GGACGTCA | -0.198
81 | ATTCTTAG | -0.0823
82 | ACAAACTA | -0.00892
83 | AATGTAAT | 0.0352
84 | AGAACGCC | -0.0507
85 | CCGCGTCC | -0.071
86 | GATTAACC | 0.0372
87 | AATGCAAA | -0.0635
88 | GGCATGAA | 0.00527
89 | AATCCGGG | -0.23
90 | ACCCTGTC | 0.005
91 | AGTAAGTA | -0.0261
92 | CGGTCCCA | 0.177
93 | CCGGCGAA | 0.121
94 | AATAGATA | -0.00376
95 | GTCACGTA | 0.237
96 | CTCGCGAG | 0.144
97 | AATGTTGT | 0.0348
98 | CTCTCCCC | -0.305
99 | CGTCACGA | 0.133
100 | CGGCTACA | 0.0225

Row | Sequence | PBM E-score
101 | GCTTTTCA | -0.0167
102 | AGGCACTC | -0.0682
103 | CGCAGGCA | -0.178
104 | ATACGTAA | 0.334
105 | CCAACCAG | -0.079
106 | CAAATGGG | -0.196
107 | GGAGCCAC | -0.00244
108 | ACTATTAT | -0.108
109 | ACTGGTTC | -0.0269
110 | CCGCTGCG | 0.00129
111 | ATGGTCTC | -0.0847
112 | ATCGAGCA | -0.00379
113 | CCGACACG | 0.0185
114 | ATGGGTGA | -0.215
115 | CTCTCTAC | -0.00069
116 | GGGCACCA | -0.208
117 | CGGTCGCA | 0.0322
118 | GTTCCACA | 0.0553
119 | CACGCCGA | -0.19
120 | AGGTACAC | -0.0721
121 | TAGACCCA | -0.298
122 | CACCCACA | -0.143
123 | CCACGGGA | -0.00415
124 | GATTATCC | -0.0434
125 | CCGCCAGG | -0.154

Row | Sequence | PBM E-score
126 | CAGTGAGC | -0.196
127 | TCCTCCCA | -0.145
128 | AGGAAGGG | -0.322
129 | CTCTAGCA | -0.228
130 | AATCTTGG | -0.364
131 | CGGCCGTA | 0.378
132 | ACTGTAGC | -0.0955
133 | AAAAAAAA | -0.0227
134 | ACCCGAAC | 0.278
135 | ATGGTACA | -0.173
136 | AGGGGTTG | -0.106
137 | TGCGACAA | 0.141
138 | GAAGAAGC | -0.195
139 | ATTAGGGG | -0.067
140 | CGCCCCCA | -0.189
141 | GCTACTAA | -0.147
142 | ATAGCATA | 0.14
143 | GGAGCCAA | -0.242
144 | GCCGGGGA | -0.273
145 | AACGCGGA | 0.152
146 | ACCCTACA | 0.0453
147 | CCGCAGGC | -0.0387
148 | CATTCGAC | -0.128
149 | AAGCAGAA | -0.0907
150 | AATTGGGC | -0.199

Row | Sequence | PBM E-score
151 | CCTAGTGC | -0.199
152 | AAGCCACT | -0.122
153 | ACCCCTCC | -0.102
154 | ACGAGACT | 0.337
155 | CTAGCAAA | -0.221
156 | AAGGAGAT | -0.197
157 | AATATCAT | -0.0596
158 | TCCACAAA | -0.00827
159 | ACTCAACT | 0.0493
160 | AATCCTAA | -0.0492
161 | AGACAGTA | -0.167
162 | AGGGGTAG | -0.0712
163 | GATTTTCA | 0.115
164 | GAAAGCTA | -0.143
165 | AACGTCTG | 0.0524
166 | GGTAACGA | 0.346
167 | ACGTATGA | 0.243
168 | ACGATTTA | 0.28
169 | GGAATCCA | -0.203
170 | CGGGGCAC | -0.065
171 | CCGGAATC | -0.285
172 | CTACGGCC | -0.0664
